Experimental data as given in PubChem BioAssay AID463173 (ICCB-Longwood Screening Facility, Harvard Medical School, 2010).
The campaign covered roughly 52,000 compounds. About 1,700 (3.3%) were called active. Cut-off read from the data, not from the text of the source: active = survival mostly below about 52% (no sharp cut-off); inactive = mostly above about 56%. This is one part of the list.

System: Wild type
Assay: growth inhibition of S. aureus wild type versus tarO mutant, primary screen, teichoic acid synthesis inhibitors, RN4220, OD600 (AID 463173)
Details: S. aureus RN4220 wild type/DeltatarO growth, OD600, 18 h, hits give low values, screened at 18.75 µg/mL (by protocol)

| SMILES | survival |
| --- | --- |
| Cc1ccnc(N2CCC(C(=O)NCc3ccc(F)cc3)CC2)n1 | inactive: 105% |
| Cc1cc(O)c(C(c2ccccc2)N2CCN(c3ccccc3)CC2)c(=O)n1Cc1ccco1 (stereo not given) | inactive: 78% |
| O=C(NC1CC2CCCC(C1)N2C(=O)Nc1ccccc1)C1CC1 (stereo not given) | inactive: 98% |
| CCOc1ccc(-c2nn(-c3ccc(F)cc3)c3c2cnc2ccc(F)cc23)cc1 | inactive: 86% |
| Cc1ccc2oc(-c3ccc(Cl)cc3)c(O)c(=O)c2c1 | inactive: 71% |
| Cc1cc(C)cc(NC(=O)c2ccc3oc(=O)c(S(=O)(=O)c4ccc(F)cc4)cc3c2)c1 | inactive: 94% |
| COc1ccc(N2CCN(C(=O)C3CCN(S(=O)(=O)c4cccc5nonc45)CC3)CC2)cc1 | inactive: 111% |
| CCN1CCN(CCCNC(=O)CS(=O)(=O)Cc2nc(-c3ccccc3C)oc2C)CC1 | inactive: 81% |
| COc1cccc2sc(NC(=O)c3ccc(S(=O)(=O)N4CCC(C)CC4)cc3)nc12 | inactive: 69% |
| CCOC(=O)c1noc2ncnc(Nc3cc(Cl)c(OC)cc3OC)c12 | inactive: 71% |
| COc1ccc(NC(=O)Cn2c(=O)c3cccn3c3ccccc32)cc1Cl | inactive: 83% |
| COc1ccc(-c2nc3sc(CCNC(=O)Cc4ccc(F)cc4)c(C)n3n2)cc1 | inactive: 78% |
| Cc1sc(-c2cc3ccccc3oc2=O)nc1-c1ccc(Cl)c(Cl)c1 | inactive: 82% |
| COc1ccc(C)cc1NC(=O)Nc1cc(C(=O)NCc2ccc(C)cc2)ccc1N1CCCC1 | inactive: 85% |
| CCOc1ccccc1OCCCCn1c(-c2ccc(Cl)cc2)nc2ccccc2c1=O | inactive: 45% |
| CCOc1ccc(CNCc2c(C(=O)O)c(C)n(Cc3ccc(C)cc3)c2C)cc1 | inactive: 104% |
| Cc1nnc(N2CCCC(C(=O)NCCN(C)C)C2)c2nn(-c3ccccc3)c(C)c12 (stereo not given) | inactive: 69% |
| CCc1ccccc1Nc1ccc(C(=O)O)cn1 | inactive: 113% |
| O=S(=O)(Nc1ccc(-c2ccc(N3CCCC3)nn2)cc1)c1ccc(C(F)(F)F)cc1 | inactive: 64% |
| CCC(Sc1nc(-c2ccccc2)[nH]c1S(=O)(=O)c1ccc(C)cc1)C(=O)O (stereo not given) | inactive: 84% |
| Cc1ccc(-n2ncc3c(N(C)C)ncnc32)cc1Cl | inactive: 87% |
| Cc1cccc(-c2nc(CCNC(=O)c3ccc(Br)o3)cs2)c1 | inactive: 69% |
| Cc1cc(C)cc(OC(=O)c2cc(-c3ccc(Cl)cc3)on2)c1 | inactive: 87% |

| SMILES | survival |
| --- | --- |
| Cc1cc(=O)n(Cc2ccc(F)cc2Cl)c2c1c(C)nn2C | inactive: 47% |
| CC(C)c1ccc(-c2noc(SCC(=O)N3CCCCC3C)n2)cc1 (stereo not given) | inactive: 82% |
| O=C(NCCCN1CCN(c2ccc(F)cc2)CC1)c1cc2c(Cl)nc3ccccc3c2s1 | inactive: 82% |
| CCN(CC)C(=O)Cn1c(=O)n(-c2ccc(C)c(C)c2)c(=O)c2c(C)c(C(=O)N(CC)CC)sc21 | inactive: 87% |
| CC(=O)c1sc(NC(=O)c2c(-c3ccccc3)c(-c3ccccc3)nn(C)c2=O)nc1C | inactive: 54% |
| CCN1CCN(C(=O)c2cnn(-c3ccc(F)cc3F)c2C2CCN(C(=O)OC(C)(C)C)CC2)CC1 | inactive: 82% |
| CCOc1ccc(NC(=O)c2c(NCc3cccnc3)sc3c2CCC(C)C3)cc1 (stereo not given) | inactive: 140% |
| CC1CCc2onc(C(=O)N3CCN(c4ccc(F)cc4)CC3)c2C1 (stereo not given) | inactive: 88% |
| CCCCCN1C(C(=O)c2ccccc2)=C(NC(=O)c2ccc(C)cc2)c2ccccc2S1(=O)=O | inactive: 77% |
| CC1CCC(N2CC(=O)N(CCC3=CCCCC3)C(c3ccc(F)cc3)C2=O)CC1 (stereo not given) | inactive: 84% |
| COc1ccc(OC)c(NC(=O)c2cnc(Nc3ccc(C)c(Cl)c3)c3ccccc23)c1 | inactive: 72% |
| Cn1c(CO)nc2cc(N)ccc21 | inactive: 110% |
| COc1cc(Cl)c(NC(=O)CCc2nc3cccnc3n2-c2ccccc2)c(OC)c1 | inactive: 82% |
| CC(=O)Nc1c(C)nn(-c2ccccc2)c1N1CCC(C(=O)NCc2cccc(Cl)c2)CC1 | inactive: 71% |
| Cc1ccc(NC(=O)c2cnc(SCC(=O)N3CCCc4ccccc43)n(C)c2=O)cc1 | inactive: 71% |
| CC(C)(C)OC(=O)N1CCC(c2c(C(=O)N3CCN(c4ccccc4F)CC3)cnn2-c2ccccc2Cl)CC1 | inactive: 70% |
| O=C(NCCc1nc2ccccc2n1Cc1c(F)cccc1Cl)c1ccco1 | inactive: 95% |
| O=C(CSc1nc2cc3ccccc3cc2[nH]1)Nc1ccc(F)cc1 | inactive: 76% |
| CC1=C(C(=O)Nc2ccc(Cl)cc2)C(c2cccs2)n2nc(SCc3cccc(C)c3)nc2N1 (stereo not given) | inactive: 103% |
| Cc1ccc2cc(C(c3nnnn3C3CCCC3)N3CCCc4ccccc43)c(=O)[nH]c2c1 (stereo not given) | inactive: 108% |
| CCOc1ccc(NC(=O)CCNS(=O)(=O)c2ccc3c(c2)CCCC(=O)N3)cc1 | inactive: 87% |
| CC(=O)NC1Sc2ccccc2N=C1c1ccccc1 (stereo not given) | inactive: 112% |
| Cc1ccc(C(=O)Nc2nnc(S(=O)(=O)N3CCCCCC3)s2)cc1 | inactive: 79% |

| SMILES | survival |
| --- | --- |
| COc1ccc(CNC(=O)CCc2c(C)c3cc4c(C)c(C)oc4cc3oc2=O)cc1 | inactive: 108% |
| CC(=O)Nc1ccc(-c2nnc3n(Cc4ccc(C)cc4)c(=O)c4ccccc4n23)cc1 | inactive: 109% |
| O=c1c(NCc2ccccc2Cl)nccn1-c1ccccc1 | active: -1% |
| CCOC(=O)CCC(=O)Nc1nnc2n1CCS2 | inactive: 65% |
| CC(=O)N1CCc2cc(S(=O)(=O)NC(CC(C)C)C(=O)NCc3ccccc3Cl)ccc21 (stereo not given) | inactive: 73% |
| Cc1c(NC(=O)c2cc(-c3ccccc3O)on2)c(=O)n(-c2ccccc2)n1C | inactive: 76% |
| CCCCCOc1ccc(Cn2c(=O)oc3ccc(C)cc32)cc1OC | active: -6% |
| CCC(=O)N1CCc2cc(Br)cc(S(=O)(=O)N3CCC(C(=O)Nc4ccccc4F)CC3)c21 | inactive: 80% |
| CCC(C)Nc1nc(NC)nc(NC(C)CC)n1 (stereo not given) | inactive: 114% |
| CCCCS(=O)(=O)c1oc(-c2cccs2)nc1S(=O)(=O)c1ccc(F)cc1 | inactive: 82% |
| O=C1CC(c2cc(F)cc(F)c2)c2cc3c(cc2N1)OCO3 (stereo not given) | inactive: 84% |
| Cc1c(C(=O)N2CCN(c3ccc(F)cc3)CC2)sc2nc3n(c(=O)c12)CCC3 | inactive: 89% |
| Cc1cc(C)cc(C(=O)n2nc(C)c(S(=O)(=O)N3CCCCCC3)c2C)c1 | inactive: 117% |
| O=C(Nc1ccc(Cl)cc1Cl)c1cc(S(=O)(=O)N2CCCCCC2)ccc1F | inactive: 67% |
| CC(C)(C)OC(=O)N1CC=C2C(C#N)=C(N)C(C#N)(C#N)C(c3ccc4c(c3)OCO4)C2C1 (stereo not given) | inactive: 107% |
| CCCCc1nn2c(=O)cc(COC(=O)c3ccccc3NC(=O)c3cccs3)nc2s1 | inactive: 112% |
| CN(C)c1nc(Cl)nc(NCCCC(=O)O)n1 | inactive: 109% |
| CCCOc1ccc(NC(=O)CC2C(=O)N(c3ccc(C)cc3)C(=O)N2CCc2ccncc2)cc1 (stereo not given) | inactive: 73% |
| CCN(C(=O)CSc1nnc(Cn2nnc3ccccc32)o1)c1nc(-c2ccccc2)cs1 | inactive: 114% |
| O=C(Cn1ccn(-c2ccc(F)cc2)c(=O)c1=O)Nc1ccccc1C(F)(F)F | inactive: 82% |
| Cc1oc(-c2ccc(C(=O)NCCN(C)C)cc2)nc1CS(=O)(=O)c1ccccc1 | inactive: 72% |
| O=C(Cn1nc(-c2ccccc2)nc(Cc2ccccc2)c1=O)Nc1ccc(Cl)cc1 | inactive: 69% |
| Cc1cccc(NC(=O)Cn2nnc(C(=O)NCc3ccco3)c2N)c1 | inactive: 125% |

| SMILES | survival |
| --- | --- |
| CC(C)Cn1c(C2CC(=O)N(c3ccccc3Cl)C2)nc2ccccc21 (stereo not given) | inactive: 97% |
| Cc1cccc(-n2c(N)cc(=O)nc2SCC(=O)Nc2ccc(F)cc2)c1C | inactive: 86% |
| COc1ccc(Br)cc1C(=O)Nc1ccc(-c2nc3ncccc3o2)cc1C | inactive: 72% |
| Cc1ccc(S(=O)(=O)Cn2nnnc2CN(Cc2ccco2)Cc2cccs2)cc1 | inactive: 112% |
| CCc1ccc(NC(=O)CSc2ccc3nc(-c4ccc(OC)cc4)cn3n2)cc1 | inactive: 65% |
| Cc1ccc(C(=O)NCC(=O)OCc2cc(=O)n3ccsc3n2)cc1 | inactive: 64% |
| CC(C)(C)C(=O)CSc1nnc(-c2ccccc2)o1 | inactive: 105% |
| CCN(CC)S(=O)(=O)c1ccc2c(c1)N(CC(=O)Nc1ccc(OC)cc1)C(=O)CS2 | inactive: 102% |
| Cc1ccccc1CNC(=O)c1oc2c(c1C)-c1nn(Cc3ccc(Cl)cc3)cc1CC2 | inactive: 80% |
| COc1nc(OC)nc(N2CCC(C(=O)NCC3CCCCC3)CC2)n1 | inactive: 103% |
| Clc1nc(Cl)nc(NNc2nc(Cl)nc(Cl)n2)n1 | inactive: 106% |
| CCOC(=O)CNc1c(-c2ccc(OC)cc2)nc2ccc(Cl)cn12 | inactive: 115% |
| COC(=O)CSc1nc2sc3c(c2c(=O)n1-c1ccc(C)cc1)CC(C(C)C)OC3 (stereo not given) | inactive: 78% |
| CCOc1ccc(NC(=O)C2CCCN(c3cnccn3)C2)cc1 (stereo not given) | inactive: 87% |
| CCOc1ccc(Cl)cc1CNCCCSc1nnnn1C | inactive: 88% |
| Cc1ccc(NC(=O)CN2C(=O)C(C)(C)Oc3ccc(C(=O)N4CCCC4)cc32)cc1 | inactive: 103% |
| Cc1ccc(Nc2nc(C(=O)NCC3CCCO3)cs2)cc1 (stereo not given) | inactive: 105% |
| COC(=O)c1ccccc1NC(=O)c1cnn(-c2ccc(F)cc2)c1-n1cccc1 | inactive: 87% |
| Cc1ccc(CN(C(=O)COc2ccccc2[N+](=O)[O-])c2ccccn2)cc1 | inactive: 78% |
| NCCCNC(=O)c1ccco1 | inactive: 115% |
| CCC(CC)C(=O)Nc1nnc(S(=O)(=O)N2CCc3ccccc32)s1 | inactive: 81% |
